According to patent US20220403048A1, “BINDING MOLECULES TO ARGINASE II [ARG2]” (Cancer Research Technology Limited, priority 2019, published 2022):

Target: T1, recombinant human trimeric ARG2 enzyme (Homo sapiens, UniProt P78540, E275H/R327K)
T1 construct: His10 (after a GGG linker) (C); made in house; host or cells: E. coli BL21 (DE3)
T1 sequence (P78540 with tags, fused parts or gaps E275H/R327K): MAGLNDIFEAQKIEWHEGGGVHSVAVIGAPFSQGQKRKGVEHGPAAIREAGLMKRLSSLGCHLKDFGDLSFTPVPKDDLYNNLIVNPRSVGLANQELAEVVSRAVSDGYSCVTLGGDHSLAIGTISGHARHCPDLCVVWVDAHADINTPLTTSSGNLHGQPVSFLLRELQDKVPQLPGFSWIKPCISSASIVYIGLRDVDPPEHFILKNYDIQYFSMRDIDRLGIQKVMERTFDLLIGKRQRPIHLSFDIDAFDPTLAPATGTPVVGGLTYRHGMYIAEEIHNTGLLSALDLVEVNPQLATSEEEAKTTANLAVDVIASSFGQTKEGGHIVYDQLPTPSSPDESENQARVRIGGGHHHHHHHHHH
Assay: Direct binding HTRF assay, human trimeric ARG2
Settings: purified scFv, FIG. 1A
Protocol: Unpurified scFv from periplasmic preparations were screened in a homogeneous time-resolved fluorescence (HTRF™, CisBio Bioassays, France) binding assay using a Pherastar plate reader (BMG Labtech, Germany). In this assay, binding of unpurified scFv to recombinant human trimeric ARG2 enzyme was assessed by measuring the fluorescence resonance energy transfer (FRET) between the c-myc tagged scFv and the biotinylated enzyme using streptavidin cryptate and anti-c-myc-XL665 detection reagents (CisBio International, France; cat: 610SAKLB and 61 MYCXLB respectively). […] Assay plates were incubated overnight at 4° C. prior to reading time resolved fluorescence on a Pherastar plate reader ([…]) using an excitation wavelength of 320 nm and measuring the emission at 620 nm and 665 nm (100 flashes).
Data were analysed by calculating % Delta F values for each sample. % Delta F was determined according to equation 1.
The scFv with unique protein sequences were expressed in E. coli and purified by affinity chromatography (essentially as described (Bannister et al., 2006)). The ARG2 binding profile of each purified scFv was determined by testing a dilution series of the purified scFv in the HTRF™ assay described in section 1.4, substituting the unpurified scFv periplasmic preparation with the purified scFv. […] Data were analysed by calculating the % Delta F values as described in section 1.4. […]

binding to biotinylated recombinant human trimeric ARG2 enzyme: bound
B1: C0020187: anti-ARG2 antibody, parent lead isolation clone, VH SEQ ID NO: 12, VL SEQ ID NO: 17 (antibody, listed as Homo sapiens, V domains shown)
VH: [about 100 residues not given here]LRADLGLYMDLWGRGTLVTVSS
VL: QSVLTQPPSVSAAPGQKVTISCSGSSSNIGNHYVSWYQQLPGTAPKLLIYDNSERPSGIPDRFSGSKSGTSATLGITGLQTGDEADYYCGTWDSSLSALVFGGGTKLTVL
modifications: C0020187
